Results: the supplement of paper PMC10126150
Values marked as one replicate rest on one cluster of the flow cell; about a third of the high ones do not repeat.

Tested on: ATP
Experiment: switch fluorescence ratio, 500 uM ATP over buffer (Cy3 cluster intensity, sum of 5 cycles each) (fold (ratio)); higher = stronger signal-on switching upon ATP binding; sequences stand for … in TCGTCGGCAGCGTCAGATGTGTATAAGAGACAGTTTTTTTTTTTTTTTTTTTTTTTTT…TC
Conditions: aptamer strand: ATP DNA aptamer (quencher-CACCTGGGGGAGTATTGCGGAGGAAGG + anchor), 100 nM annealed; ATP concentration: 500 uM; one replicate
Summary of the method: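 Values give the fluorescence ratio for each switch-domain sequence, averaged from per-cluster ratios of summed target-cycle to summed buffer-cycle Cy3 intensity. The Cy3-labelled switching-strand clusters sat on a modified Illumina MiSeq flow-cell, were annealed to 100 nM quencher-labelled ATP aptamer, and were imaged in selection buffer, then after 15 min with 500 uM ATP at 22 °C. Five cycles ran with NaOH stripping and re-annealing between them, and clusters outside 100-1000 RFU were excluded.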
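Further: ATP exposure 15 min at 22 °C before imaging.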

In the case of AAGTCAGACA, the switch fluorescence ratio is reported as 1.03.

CGTAATTAAT was tested, and the switch fluorescence ratio was 0.945.

CGTGGGGCTA was tested, and the switch fluorescence ratio was 0.988.

Work on AGCACGCTTA yielded a switch fluorescence ratio of 0.99.

Sequence GTACGGAGTG has a switch fluorescence ratio of 1.03.

TTTTAGAGG gave a switch fluorescence ratio of 0.978.

Sequence ATGGGATTAT has a switch fluorescence ratio of 0.994.

In the case of AATACACTAC, the switch fluorescence ratio is reported as 1.37.

TCGGAGAATT was tested, and the switch fluorescence ratio was 0.984.

GTTGTTGAAA showed a switch fluorescence ratio of 0.975.

GACCACCCCA was tested, and the switch fluorescence ratio was 1.07.

ATTATTTATG showed a switch fluorescence ratio of 1.01.

With TAAGATTGGG the switch fluorescence ratio was 0.979.

With TGTGAACGAT the switch fluorescence ratio was 1.02.

In the case of CCGCGTGTTA, the switch fluorescence ratio is reported as 1.02.

CATCACAGG showed a switch fluorescence ratio of 1.33.

Work on GGCAAATGAC yielded a switch fluorescence ratio of 1.2.

GCGCCTAAGG showed a switch fluorescence ratio of 1.01.

TTCTTAACTG showed a switch fluorescence ratio of 1.08.

TCGGACGAGA showed a switch fluorescence ratio of 0.995.

Work on GGCCACTCGC yielded a switch fluorescence ratio of 1.02.

GAGTACAGAG gave a switch fluorescence ratio of 1.04.

In the case of AATTAGTACC, the switch fluorescence ratio is reported as 0.945.

In the case of TGAGACCCGT, the switch fluorescence ratio is reported as 1.03.

Sequence CAGGATGGTT has a switch fluorescence ratio of 0.973.

Sequence AGCGAGAATG has a switch fluorescence ratio of 1.

For AGCGTGCTT, the switch fluorescence ratio was 0.966.

Sequence TTTATGAGTA has a switch fluorescence ratio of 0.98.

Sequence TGCCAGTACT has a switch fluorescence ratio of 1.05.

ATTTCGGCGG gave a switch fluorescence ratio of 0.981.

GGACTATATG gave a switch fluorescence ratio of 0.99.

With CGGACTCTAG the switch fluorescence ratio was 1.01.

In the case of CTCTTGCATT, the switch fluorescence ratio is reported as 1.45.

AGACTGTGTG was tested, and the switch fluorescence ratio was 0.972.

TAGGTAGCCA gave a switch fluorescence ratio of 0.964.

For TACATAGTCC, the switch fluorescence ratio was 0.99.

In the case of GCGCTTTACT, the switch fluorescence ratio is reported as 2.69.

ATCCCACTTT was tested, and the switch fluorescence ratio was 1.08.

In the case of TTGTTGCCTT, the switch fluorescence ratio is reported as 0.932.

With GGTTTTAATA the switch fluorescence ratio was 0.987.

CGGGATAATT gave a switch fluorescence ratio of 0.997.

In the case of TCCCCGGTTT, the switch fluorescence ratio is reported as 1.45.

TTCCGGAAAC showed a switch fluorescence ratio of 2.48.

GCCCTTGGCT gave a switch fluorescence ratio of 0.992.

AACTTTCACT was tested, and the switch fluorescence ratio was 1.07.

Sequence TAGGTCTGTT has a switch fluorescence ratio of 1.01.

With GGGCCTTAGT the switch fluorescence ratio was 1.01.

For AGGATAATCT, the switch fluorescence ratio was 0.966.

In the case of TACGTCTACT, the switch fluorescence ratio is reported as 1.2.

TAACTGGGGG gave a switch fluorescence ratio of 1.04.

In the case of TGAGACAAGG, the switch fluorescence ratio is reported as 0.978.

For ATGGTGCTTA, the switch fluorescence ratio was 1.01.

For TTTTTGCCGT, the switch fluorescence ratio was 0.998.

With CGCTAGACAG the switch fluorescence ratio was 1.05.

TGTTGCAGCA gave a switch fluorescence ratio of 1.01.

TTCTATACAC gave a switch fluorescence ratio of 1.04.

Work on CATTTCCCGG yielded a switch fluorescence ratio of 1.04.

Sequence GCTGATTAAG has a switch fluorescence ratio of 0.993.

Work on CATTGGATTT yielded a switch fluorescence ratio of 0.984.

With ACCAAGTCAA the switch fluorescence ratio was 1.07.

For CCATGGCTAG, the switch fluorescence ratio was 1.02.

TGTTCGGTGG was tested, and the switch fluorescence ratio was 1.04.

In the case of TCTTTGGTTC, the switch fluorescence ratio is reported as 1.04.

ATCAGTAAGC showed a switch fluorescence ratio of 1.07.

Sequence TGTGGCAAGG has a switch fluorescence ratio of 1.02.

In the case of ACATCGAAGA, the switch fluorescence ratio is reported as 1.01.

GAATCCATAT showed a switch fluorescence ratio of 1.01.

For TTACCCCGCA, the switch fluorescence ratio was 2.68.

For CGTTGAGGA, the switch fluorescence ratio was 0.993.

For GGCCTCCATC, the switch fluorescence ratio was 1.06.

For CCGGATAGG, the switch fluorescence ratio was 1.04.

For CGTTGGTAAC, the switch fluorescence ratio was 1.02.

Work on ATGATGTTCT yielded a switch fluorescence ratio of 1.01.

CACGGAGGTC gave a switch fluorescence ratio of 1.01.

GGAAAGAAC showed a switch fluorescence ratio of 1.

GATGCCAAGT showed a switch fluorescence ratio of 1.01.

For TCTCGCGACT, the switch fluorescence ratio was 1.17.

Sequence AAAAGTTATA has a switch fluorescence ratio of 1.03.

In the case of CCTGCGTGG, the switch fluorescence ratio is reported as 1.1.

GTGAGAGGAA was tested, and the switch fluorescence ratio was 1.02.

In the case of AAGGGGAGAC, the switch fluorescence ratio is reported as 1.73.

Work on CTACCCGTA yielded a switch fluorescence ratio of 1.06.

For ACGAGAATCA, the switch fluorescence ratio was 0.987.

CCTTTCGTCG gave a switch fluorescence ratio of 1.29.

For GGCAGGCATG, the switch fluorescence ratio was 1.01.

TGATGATCAG gave a switch fluorescence ratio of 1.01.

With AAACTAGGCC the switch fluorescence ratio was 1.01.

Work on CGACCACGAT yielded a switch fluorescence ratio of 1.13.

AGTCTTATGT showed a switch fluorescence ratio of 1.01.

Work on ATCTGAGATT yielded a switch fluorescence ratio of 1.03.

CAGTTATGA was tested, and the switch fluorescence ratio was 1.01.

For TCTTTAGAAC, the switch fluorescence ratio was 1.05.

In the case of GCAGGGTACA, the switch fluorescence ratio is reported as 0.986.

With TTGCTGTACA the switch fluorescence ratio was 0.998.

ATTAGCGATA was tested, and the switch fluorescence ratio was 1.16.

TGTGAGTCGC showed a switch fluorescence ratio of 0.997.

Sequence TACCTTGCCA has a switch fluorescence ratio of 1.07.

CTGTAGACTC was tested, and the switch fluorescence ratio was 1.19.

Work on TGGTGATAAC yielded a switch fluorescence ratio of 1.

Work on GGCTGCCTC yielded a switch fluorescence ratio of 1.03.

In the case of AACTATTGTG, the switch fluorescence ratio is reported as 1.06.

AAATTTAAGA was tested, and the switch fluorescence ratio was 0.986.

In the case of CAGAGTTGCT, the switch fluorescence ratio is reported as 0.949.

For CTATGAGATG, the switch fluorescence ratio was 1.

Work on GTTATCGATC yielded a switch fluorescence ratio of 1.

For AAAGCAAAGC, the switch fluorescence ratio was 1.07.

GACTATAAGT gave a switch fluorescence ratio of 1.01.

For CGGGCTAGGA, the switch fluorescence ratio was 1.

With TAGTCACT the switch fluorescence ratio was 0.998.

With TGTTTAGCCT the switch fluorescence ratio was 1.06.

Sequence CATTTAGGGT has a switch fluorescence ratio of 0.968.

AGGGTACACT showed a switch fluorescence ratio of 1.02.

Sequence CAGATCAGAA has a switch fluorescence ratio of 0.999.

With GTTCCCGTTA the switch fluorescence ratio was 1.01.

TTCCACGCCC gave a switch fluorescence ratio of 1.43.

TAGCCGAGGG gave a switch fluorescence ratio of 0.992.

AATTTGTCTC showed a switch fluorescence ratio of 0.978.

Sequence AAAATGCCGA has a switch fluorescence ratio of 1.03.

With AACAGGTGTA the switch fluorescence ratio was 1.63.

AGATTTTATC showed a switch fluorescence ratio of 1.03.

For TTCCTTTGCA, the switch fluorescence ratio was 4.59.

With TGAATGAGCG the switch fluorescence ratio was 0.949.

TCGATGCTAT was tested, and the switch fluorescence ratio was 1.58.

Work on GAGTAGGGTC yielded a switch fluorescence ratio of 1.05.

GACTGCTTGT was tested, and the switch fluorescence ratio was 1.03.

Sequence TGGGTTAGGA has a switch fluorescence ratio of 1.04.

With TGTGGCAGGG the switch fluorescence ratio was 0.989.

Sequence GTAGAGGAGC has a switch fluorescence ratio of 0.984.

TAGTTGACCT was tested, and the switch fluorescence ratio was 1.23.

Sequence CTATTAAAA has a switch fluorescence ratio of 0.98.

AAGGGAAGAG showed a switch fluorescence ratio of 1.03.

TGAGATCTAA gave a switch fluorescence ratio of 1.

Sequence TCCCAATTTC has a switch fluorescence ratio of 1.3.

Work on CATGCAATTA yielded a switch fluorescence ratio of 1.19.

Sequence GAGTGAATCA has a switch fluorescence ratio of 0.937.

For TGCGGCTGAG, the switch fluorescence ratio was 0.943.

Work on AGGCTGTTTG yielded a switch fluorescence ratio of 1.

Work on TCATTAGTTA yielded a switch fluorescence ratio of 1.

Work on CTAAGCTCAA yielded a switch fluorescence ratio of 1.

Sequence AGGAAAGTCA has a switch fluorescence ratio of 1.01.

In the case of TCAGGTTTCT, the switch fluorescence ratio is reported as 0.981.

With CGGTCATATG the switch fluorescence ratio was 0.989.

Sequence AATTGATGT has a switch fluorescence ratio of 1.02.

TTTTCTACGT gave a switch fluorescence ratio of 1.01.

Work on ACCGATTGGC yielded a switch fluorescence ratio of 0.987.

Work on CGCGTGCCCA yielded a switch fluorescence ratio of 0.99.

With ACTTGCACGG the switch fluorescence ratio was 1.23.

With TTACCTTGTG the switch fluorescence ratio was 1.02.

ACAGTCACCA gave a switch fluorescence ratio of 1.14.

TCTTGTAGTC was tested, and the switch fluorescence ratio was 0.994.

With GTACTCATGG the switch fluorescence ratio was 1.01.

Sequence GGTGTGGATA has a switch fluorescence ratio of 1.03.

Work on TAAAGCTTTA yielded a switch fluorescence ratio of 0.987.

AATCGGCAGT showed a switch fluorescence ratio of 1.01.

CATGTATTTC showed a switch fluorescence ratio of 0.967.

In the case of AAGGCGCGTT, the switch fluorescence ratio is reported as 0.983.

Work on CTGCTGTAGT yielded a switch fluorescence ratio of 1.03.

For CCCATTCGAA, the switch fluorescence ratio was 1.01.

In the case of GGTTAGCGGT, the switch fluorescence ratio is reported as 0.994.

CGGCGAGGTC showed a switch fluorescence ratio of 1.05.

Work on TAAGATAATT yielded a switch fluorescence ratio of 1.04.

With GTAGTGTAGG the switch fluorescence ratio was 1.03.

In the case of GCCCGGTTTA, the switch fluorescence ratio is reported as 1.02.

CGGCTGCCTG was tested, and the switch fluorescence ratio was 1.04.

For TTGACGTACT, the switch fluorescence ratio was 1.36.

Sequence CGGAAGTTTT has a switch fluorescence ratio of 1.01.

For TTGCTTTTCA, the switch fluorescence ratio was 1.01.

Work on AAGGCCACAG yielded a switch fluorescence ratio of 1.07.

For ATAGTAGTAA, the switch fluorescence ratio was 0.98.

For CACAACTTCA, the switch fluorescence ratio was 1.02.

AGTGCATGAG showed a switch fluorescence ratio of 1.05.

With GATGCAGCCG the switch fluorescence ratio was 1.01.

CATCGTGCGT showed a switch fluorescence ratio of 0.963.

Sequence ATTATCGCCA has a switch fluorescence ratio of 0.979.

ATAGGCCGAC showed a switch fluorescence ratio of 1.03.

In the case of GGTTTTCACG, the switch fluorescence ratio is reported as 1.

For CGGCGTTGGG, the switch fluorescence ratio was 1.

For ACGGTTGCAC, the switch fluorescence ratio was 1.08.

Work on CCTGCACTCG yielded a switch fluorescence ratio of 1.17.

In the case of GACCGCGAAG, the switch fluorescence ratio is reported as 1.03.

For TTAGGACGAC, the switch fluorescence ratio was 1.05.

With GAGGGCTAGA the switch fluorescence ratio was 0.932.

With TAGCCGGAGA the switch fluorescence ratio was 1.05.

With GCCGCTCTC the switch fluorescence ratio was 1.08.

TTCGGTCAG gave a switch fluorescence ratio of 1.01.

GCCTTTTGTA gave a switch fluorescence ratio of 1.09.

TGCAGGTGAA showed a switch fluorescence ratio of 1.53.

Work on TAAACAGTTT yielded a switch fluorescence ratio of 0.973.

With CACCATGGTG the switch fluorescence ratio was 1.13.

Sequence CAGGGTGCGA has a switch fluorescence ratio of 1.04.

GGGTTGGGC gave a switch fluorescence ratio of 0.942.

Work on CAGCACGGGT yielded a switch fluorescence ratio of 0.999.

Work on AGTCCCAGCG yielded a switch fluorescence ratio of 1.04.

TATCCCCAAA gave a switch fluorescence ratio of 1.01.

GAGCATACAG gave a switch fluorescence ratio of 1.1.

Sequence ACGAAAAAGC has a switch fluorescence ratio of 0.987.

In the case of TGGAGGGGTG, the switch fluorescence ratio is reported as 0.996.

CCCGCTTTCA was tested, and the switch fluorescence ratio was 1.24.

For TGACTTGCGC, the switch fluorescence ratio was 0.986.

ATATCCTGAA gave a switch fluorescence ratio of 0.998.
